# ± gives the standard deviation. The entries are a selection whose mix differs from that of the whole data set.
# Test system: MIWI (PIWIL1) piRISC loaded with L1MC piRNA (30 nt)
# Assay: pre-steady-state target cleavage rate (min^-1); MIWI and MILI are mouse PIWI proteins and EfPiwi is from a freshwater sponge; tags in brackets are library labels; higher = faster piRNA-guided slicing of the target
# Details: guide: L1MC piRNA 5'p-UAACUAAAUACUAUGCAAGCUGUAGGUCCU; auxiliary factor: 500 nM mouse GTSF1
# Protocol: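 Cleave-'n-Seq: a library of target RNAs (target site embedded in constant flanks, ACAGCATTCCGCGTTAGTGATATCCG... 5' flank; DNA-blocked outside the site) at 0.1 nM was incubated with 1 nM active mouse MILI or MIWI piRISC (synthetic 5'-monophosphorylated piRNA guide) with or without 500 nM mouse GTSF1 at 33 °C for 1 min to 16 h. Uncleaved targets were sequenced and normalised to non-target controls, and the pooled three trials were fitted to a burst-and-steady-state model to give the pre-steady-state cleavage rate (min^-1; k3 is constrained to at most 1e-4). Sequence is the target site only; target names encode pairing extent (gX:gY) and contiguous / 1-mismatch / 2-mismatch / bulge geometry. Fits with R² ≤ 0 are excluded.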
row,Sequence,pre-steady-state target cleavage rate
1,UGCUCCUACAGCUUGCAUAGUAUUUAGUUA,1.33 ± 0.047
2,UCCUGGAUGUGCUUGCAUAGUAUUAAGAAA,0.00482 ± 0.0036
3,UCCUCCUAGUCCUUGCAUAGUAUUUAGUUA,0.868 ± 0.041
4,UCGACCUACAGCUUGCAUGUAUUUAGUUA,0.479 ± 0.05
5,UCCUGGAUCUCGUUGCAUAGUAUUUACAAA,0.00651 ± 0.0036
6,UGGACCUACAGCUUGCUAAGUAUUUAGAAA,0.0267 ± 0.0083
7,AGGACCUUCAGCUUGCAUAGUAUUUAGAUA,0.559 ± 0.05
8,UCCUGCUACAGUUGCAUAGUAUUUAGUUA,0.787 ± 0.045
9,UCCACCUACAGCUAGCAUAGUAUUUACUUA,0.414 ± 0.042
10,UCCUGGAUGUGCUUGCAUAGUAUUUAGUGUA,0.202 ± 0.019
11,UCCUGGUUCAGCUUGCAUAGUUUUUAGUUA,0.242 ± 0.031
12,UCGACCUACAGCUUGCAUACAAUUUAGUAA,0.0421 ± 0.018
13,AGCACCUACAGCUUGCAUUGUAUUUAGUUA,0.607 ± 0.045
14,UCCUGGAUCAGCUUGCAUAGAUUUUAGUUA,0.0226 ± 0.0057
15,UCCUGGAUCAGCUUGGUUAGUAUUUAGAAA,0.0111 ± 0.0054
16,UCCUGGAUGAGCUUGCAAAGUAUUAAGUUA,0.331 ± 0.035
17,UCCUGGUACAGCUUGCAUAGUGUUUAGUUA,0.563 ± 0.067
18,UCCUGCUACAGCUUGCAUAGGAUUUAGUUA,0.0367 ± 0.0089
19,AGGUGGUACAGCUUGCAUAGUAUUUAGUUA,1.36 ± 0.057
20,UCCUGGAUGUGCUUGCAUAGUAUUUACGUUA,0.277 ± 0.026
21,UCGACCUACAGCUUGGAUAGUAUUAAGUUA,0.589 ± 0.047
22,UCGACCUACAGCUUGCAUAGUUUUUACUUA,0.164 ± 0.018

# Same assay, conditions: guide: L1MC piRNA 5'p-UAACUAAAUACUAUGCAAGCUGUAGGUCCU; auxiliary factor: none (no GTSF1)
row,Sequence,pre-steady-state target cleavage rate
1,UGCUCCUACAGCUUGCAUAGUAUUUAGUUA,0.0726 ± 0.012
2,UCCUCCUAGUCCUUGCAUAGUAUUUAGUUA,0.0152 ± 0.0035
3,UCGACCUACAGCUUGCAUGUAUUUAGUUA,0.00292 ± 0.0025
4,UCCUGGAUCUCGUUGCAUAGUAUUUACAAA,0.00312 ± 0.0027
5,AGGACCUUCAGCUUGCAUAGUAUUUAGAUA,0.0523 ± 0.014
6,UCCUGCUACAGUUGCAUAGUAUUUAGUUA,0.00425 ± 0.0025
7,UCCACCUACAGCUAGCAUAGUAUUUACUUA,0.0177 ± 0.004
8,UCCUGGAUGUGCUUGCAUAGUAUUUAGUGUA,0.0278 ± 0.0068
9,UCCUGGUUCAGCUUGCAUAGUUUUUAGUUA,0.0386 ± 0.0094
10,AGCACCUACAGCUUGCAUUGUAUUUAGUUA,0.0284 ± 0.0055
11,UCCUGGAUCAGCUUGCAUAGAUUUUAGUUA,0.00439 ± 0.0024
12,UCCUGGAUGAGCUUGCAAAGUAUUAAGUUA,0.00974 ± 0.0037
13,UCCUGGUACAGCUUGCAUAGUGUUUAGUUA,0.0451 ± 0.0081
14,UCCUGCUACAGCUUGCAUAGGAUUUAGUUA,0.00691 ± 0.002
15,AGGUGGUACAGCUUGCAUAGUAUUUAGUUA,0.0811 ± 0.015
16,UCCUGGAUGUGCUUGCAUAGUAUUUACGUUA,0.037 ± 0.012
17,UCGACCUACAGCUUGGAUAGUAUUAAGUUA,0.0157 ± 0.003
18,UCGACCUACAGCUUGCAUAGUUUUUACUUA,0.022 ± 0.0056

# From the supplement of paper PMC10338343
